Data taken from patent US20240076403A1 (SIMCERE ZAIMING PHARMACEUTICAL, published 2024).

B1: NB146-62 VHH-hFc (Fc fusion)
chain: EVQVVESGGELVQPGGSLRLSCAASGFSISTYTMTWVRQGPGKGLEWVSTISPLRWGQSTTSYADSVKGRFTISRDNAKNTLYLQMNSLNPDDTGVYYCSRPDGKRGQGTQVTVSS[human IgG1 Fc with changes not written out]
notes: the junction is not described
B2: NB147-161 VHH-hFc (Fc fusion)
chain: QLQLVESGGGWVQAGGSLRLSCAASGFTLDYYAIGWFRQAPGKEREGVSCISSSGGRSNYADSVKGRFTISRDNAKNTVYLQMNSLKIEDTGVYYCAAVILDDSWQCGYYYNMDYWGKGTLVTVSS[human IgG1 Fc with changes not written out]
notes: the junction is not described
B3: NB147-39 VHH-hFc (Fc fusion)
chain: QLQLVESGGDLVQPGGSLRLSCAGSGFTLDAYAIGWFRQAPGKEREGVSCISSSGGTTSYADSVKGRFTISRDYAKNTVYLQMNAVKPEDTAVYYCAIERTCERIGASQFRGQGTQVTVSV[human IgG1 Fc with changes not written out]
notes: the junction is not described
B4: NB146-27 VHH-hFc (Fc fusion)
chain: EVQLVESGGGLAQPGGSLRLSCAASGFRFTSYWMHWVRQAPGKGLEWVSAINTGGGSTYYADSVKGRFTISRDNAKNTLYLQMNSLKPEDTALYYCARDLSGSDYVVGITSWGQGTQVTVSS[human IgG1 Fc with changes not written out]
notes: the junction is not described
B5: NB146-12 VHH-hFc (Fc fusion)
chain: QLQLVESGGGLVQPGGSLRLSCAASGFIFSDTAMNWVRQAPGKGLEWVSSINWSGTHTSYADSVKGRFKISRDNAKKALYLQMNSLQPEDTAVYACARGWVDSTRTVVAPLTKGQGTQVTVSS[human IgG1 Fc with changes not written out]
notes: the junction is not described
B6: NB146-171 VHH-hFc (Fc fusion)
chain: EVQLVESGGGLVQPGGSLRLSCAASGFTFSSYPMAWVRQAPGKGEEWVSWISNSGGRTTYADSVKGRFTISRDNAKRTVYLQMNKLQPEDTAVYSCTRASGNGERGRGTQVTVSS[human IgG1 Fc with changes not written out]
notes: the junction is not described
B7: NB147-137 VHH-hFc (Fc fusion)
chain: EVQVVESGGGLVQPGGSLRLSCAASGFTLDYHAIGWFRQAPGKEREGVSCISSSGGRTNYADSVKGRFTISRDNAKNTVYLQMNSLKPEDTAVYYCAAEIFDSAWYCPLSRYDMDYWGKGTLVTVSS[human IgG1 Fc with changes not written out]
notes: the junction is not described

Experiments:
[1] = molecular target: T1, monkey HER2 on HEK293T-monkey-HER2 cells (monkey); assay: FACS on HEK293T-monkey-HER2 cells
T1 construct: whole, on cells

[2] = molecular target: T2, murine HER2-His protein (murine, UniProt P70424 23-653); assay: ELISA, coated murine HER2-His
T2 construct: Bought protein; also called murine HER2 protein; not shown: His tag

[3] = molecular target: T3, monkey HER2-His protein (monkey); assay: ELISA, coated monkey HER2-His
T3 construct: Bought protein; also called monkey HER2 protein

[4] = molecular target: T4, recombinant human HER2-His protein (human, UniProt P04626 in part, limits assumed); assay: SPR, antibody captured on Protein A chip, human HER2-His analyte, 1:1 model
T4 construct: also called human HER2 protein; not shown: His tag

[5] = molecular target: T3, monkey HER2-His protein; assay: SPR, antibody captured on Protein A chip, monkey HER2-His analyte, 1:1 model

Binder | EC50 [1] [nM] | Max MFI [1] [MFI] | OD450 nm at 0.0001 nM antibody [2] [OD450 nm] | OD450 nm at 0.001 nM antibody [2] [OD450 nm] | OD450 nm at 0.01 nM antibody [2] [OD450 nm] | OD450 nm at 0.1 nM antibody [2] [OD450 nm] | OD450 nm at 1 nM antibody [2] [OD450 nm] | OD450 nm at 10 nM antibody [2] [OD450 nm] | OD450 nm at 100 nM antibody [2] [OD450 nm] | OD450 nm at 0.0001 nM antibody [3] [OD450 nm] | OD450 nm at 0.001 nM antibody [3] [OD450 nm] | OD450 nm at 0.01 nM antibody [3] [OD450 nm] | OD450 nm at 0.1 nM antibody [3] [OD450 nm] | OD450 nm at 1 nM antibody [3] [OD450 nm] | OD450 nm at 10 nM antibody [3] [OD450 nm] | OD450 nm at 100 nM antibody [3] [OD450 nm] | Kd [4] [nM] | koff [4] [s⁻¹] | kon [4] [M⁻¹ s⁻¹] | Kd [5] [nM] | also measured
B1 | 4.62 | 18800 | 0.05 | 0.05 | 0.05 | 0.05 | 0.05 | 0.05 | 0.05 | 0.05 | 0.06 | 0.09 | 0.4 | 1.76 | 2.5 | 2.67 | – | – | – | – | –
B2 | 4.19 | 14700 | – | – | – | – | – | – | – | 0.05 | 0.05 | 0.08 | 0.51 | 2.23 | 2.68 | 2.87 | 49.6 | 0.00465 | 93700 | – | –
B3 | 1.09 | 20900 | 0.05 | 0.05 | 0.05 | 0.05 | 0.05 | 0.05 | 0.08 | 0.05 | 0.06 | 0.16 | 1.01 | 2.66 | 2.84 | 2.82 | – | – | – | 38.6 | koff [5]: 0.00379 s⁻¹; kon [5]: 98100 M⁻¹ s⁻¹
B4 | 2.81 | 19300 | – | – | – | – | – | – | – | 0.05 | 0.06 | 0.11 | 0.65 | 2.16 | 2.46 | 2.99 | 423 | 0.00878 | 20800 | – | –
B5 | 1.4 | 21600 | 0.05 | 0.05 | 0.05 | 0.05 | 0.05 | 0.05 | 0.05 | 0.05 | 0.06 | 0.12 | 0.6 | 2.16 | 2.49 | 3.23 | – | – | – | 53.5 | koff [5]: 0.031 s⁻¹; kon [5]: 580000 M⁻¹ s⁻¹
B6 | 1.05 | 20800 | 0.05 | 0.05 | 0.05 | 0.05 | 0.05 | 0.05 | 0.06 | 0.07 | 0.08 | 0.2 | 1.04 | 3 | 3.2 | 3.32 | – | – | – | 190 | koff [5]: 0.0121 s⁻¹; kon [5]: 63600 M⁻¹ s⁻¹
B7 | 3.39 | 17600 | – | – | – | – | – | – | – | 0.05 | 0.06 | 0.16 | 0.98 | 2.65 | 2.85 | 3.18 | 267 | 0.0144 | 54100 | – | –
